Data reported in PubChem BioAssay AID651820 (National Center for Advancing Translational Sciences (NCATS), 2012).
The whole screen tested about 340,000 compounds, of which about 12,000 (3.5%) were called active. Inconclusive means that the source gave no clear call. Such entries were picked first, then a sample of the others. The call rests on the fitted dose curve; in most records, active means well fitted inhibition curve with a large enough effect; inconclusive means small, poorly fitted or top-dose-only effect, or another doubt; inactive means no such curve, though single readings can be large or run the other way. No potency is given beside an inconclusive call; the fits are too rough.

Test: qHTS Assay for Inhibitors of Hepatitis C Virus (HCV)
Conditions: Huh7.5.1 HCVcc-Cre (HCVcc is cell-culture hepatitis C virus) infection, luciferase reporter, 44 h; series mostly up to 41.8 µM
Outline: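 A cell-based infection assay in which seeded cells (1,000 per well) receive test compound after 4 h, are inoculated with HCVcc-Cre at approximately 0.5 moi, and are incubated 44 h before luminescence detection.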
Potency means the concentration at half of the fitted maximal effect; tags describe the fitted curve by direction and shape.

Question: Which Potency does the source give for `OC(CCN1CCCCC1)c1ccc(-c2ccccc2)cc1` (stereo unspecified) here?
Answer: The Potency was inconclusive [inhibitor, partial curve].

Question: For `CC1CCN(c2ccc3c(c2)S(=O)(=O)c2cccc(C(=O)NC[C@@H]4CCCO4)c2C3=O)CC1`, which Potency is on record?
Answer: The Potency was inconclusive [inhibitor, partial curve].

Question: With `O=C(Nc1nc2ccccc2s1)c1cccc(S(=O)(=O)N2CCc3ccccc32)c1` as the compound, how does the Potency read?
Answer: The Potency was inconclusive [inhibitor, single point].

Question: With `COc1ccc(Cc2nc(C(=O)Nc3ccc(Cl)cc3)cs2)cc1` as the compound, how does the Potency read?
Answer: The Potency was inconclusive [inhibitor, single point].

Question: Which Potency does the source give for `c1ccc(-c2csc(-c3cccnc3)n2)cc1` here?
Answer: Its Potency is “inactive”.

Question: For `O=[N+]([O-])c1cccc(S(=O)(=O)Nc2nc3ccccc3nc2Nc2cccc(S(=O)(=O)N3CCCCC3)c2)c1`, which Potency is on record?
Answer: Its Potency is active: 10 µM.

Question: For `C=CCCCN(Cc1ccccc1)S(=O)(=O)c1ccccc1Br`, which Potency is on record?
Answer: Its Potency is “inactive”.

Question: For `COc1cc(C(C[N+](=O)[O-])c2c(C)[nH]c3ccccc23)cc(OC)c1OC` (stereo unspecified), which Potency is on record?
Answer: The Potency was inconclusive [inhibitor, full curve, poor fit].

Question: With `O=C(Nc1cccc(OC(=O)c2cccnc2)c1)c1cccnc1` as the compound, how does the Potency read?
Answer: The Potency was inconclusive [inhibitor, partial curve, poor fit].

Question: With `COc1ccccc1NC(=O)c1cccc2c(Br)cccc12` as the compound, how does the Potency read?
Answer: The Potency was “inactive”.

Question: Which Potency does the source give for `O=C(Nc1ccccc1)Nc1ccc(-n2ccc(C(F)(F)F)n2)cc1` here?
Answer: The Potency was inconclusive [inhibitor, partial curve].

Question: For `CCCc1nc2ccccc2c(C(=O)OCc2nnc(-c3cc(OC)c(OC)c(OC)c3)o2)c1CC`, which Potency is on record?
Answer: The Potency was active: 2.82 µM.

Question: With `COCCCN=C1NN=C(c2cc(C)n(Cc3ccccc3Cl)c2C)CS1` as the compound, how does the Potency read?
Answer: Its Potency is inconclusive [inhibitor, single point].

Question: Which Potency does the source give for `Cc1ccc(-n2nnnc2SCC(=O)c2c(N)n(CC(C)C)c(=O)n(C)c2=O)cc1` here?
Answer: The Potency was “inactive”.

Question: Which Potency does the source give for `COCc1nnc(NC(=O)CS(=O)(=O)c2ccc(C)cc2)s1` here?
Answer: The Potency was “inactive”.

Question: With `CCOC(=O)c1c(-n2c(C)cc(C=C3C(=O)NC(=O)NC3=O)c2C)sc2c1CCCC2` as the compound, how does the Potency read?
Answer: The Potency was inconclusive [inhibitor, single point].

Question: With `CC(C)Oc1ccc(S(=O)(=O)N2CCOCC2)cc1NC(=O)Cc1c(F)cccc1Cl` as the compound, how does the Potency read?
Answer: The Potency was inconclusive [inhibitor, partial curve].

Question: Which Potency does the source give for `CCn1ncc(/C=N\NC(=O)c2ccc3c(c2)c(C)c(C)n3Cc2ccccc2)c1C` here?
Answer: Its Potency is “inactive”.

Question: With `COCCCn1c(SCC(=O)NC2CCCC2)nnc1-c1ccco1` as the compound, how does the Potency read?
Answer: The Potency was “inactive”.

Question: With `Cc1ccc(/C=N/NC(=O)CSc2nnc(-c3ccc(Cl)cc3)n2-c2ccc(Cl)cc2)o1` as the compound, how does the Potency read?
Answer: The Potency was inconclusive [inhibitor, single point].

Question: Which Potency does the source give for `COc1cc([N+](=O)[O-])c(C(=O)N2CCOCC2)c([N+](=O)[O-])c1` here?
Answer: The Potency was “inactive”.

Question: Which Potency does the source give for `CC(C)(C)CC(=O)Nc1cc2c3c(c1)CC(=O)N3CCC2` here?
Answer: The Potency was “inactive”.

Question: With `CN(C)c1ccc(NC(=O)CSc2nc3ccccc3c(=O)n2CC2CCCO2)cc1` (stereo unspecified) as the compound, how does the Potency read?
Answer: Its Potency is “inactive”.

Question: Which Potency does the source give for `O=C(CCl)N(Cc1ccccc1)c1ccccc1` here?
Answer: The Potency was active: 5.01 µM.

Question: For `CCOC(=O)C1=C(CSc2nc(-c3ccccc3)ccc2C#N)OC(N)=C(C#N)C1c1ccc(OC)cc1` (stereo unspecified), which Potency is on record?
Answer: Its Potency is inconclusive [inhibitor, full curve].

Question: For `CCOCCc1nnc(NC(=O)c2cccc(F)c2)s1`, which Potency is on record?
Answer: Its Potency is “inactive”.

Question: With `CCCOc1ccc(/C(O)=C2\C(=O)C(=O)N(c3ccccn3)C2c2ccccc2F)cc1C` (stereo unspecified) as the compound, how does the Potency read?
Answer: Its Potency is “inactive”.

Question: Which Potency does the source give for `O=C(Nc1ccc(N2CCOCC2)c(Cl)c1)c1cc(F)c(F)cc1Cl` here?
Answer: Its Potency is inconclusive [inhibitor, full curve].

Question: For `O=C(NCc1cccs1)C1CCCN(S(=O)(=O)c2cccc3cccnc23)C1` (stereo unspecified), which Potency is on record?
Answer: The Potency was inconclusive [inhibitor, single point].

Question: For `c1ccc(-c2nc3c(ccc4ccccc43)[nH]2)nc1`, which Potency is on record?
Answer: The Potency was inconclusive [inhibitor, single point].

Question: Which Potency does the source give for `O=S(=O)(Cc1ccccc1Cl)NCCc1ccc(F)cc1` here?
Answer: The Potency was “inactive”.

Question: Which Potency does the source give for `Cc1nc2ccccc2n1CC(O)COc1ccc(Br)cc1` (stereo unspecified) here?
Answer: The Potency was inconclusive [inhibitor, full curve, poor fit].

Question: With `CCc1noc(C)c1C(=O)Nc1cc(C(F)(F)F)ccc1-n1cncn1` as the compound, how does the Potency read?
Answer: The Potency was inconclusive [inhibitor, partial curve].

Question: For `CCOc1ccc(NC(=O)c2ccc(CSc3nnc(C)s3)cc2)cc1`, which Potency is on record?
Answer: Its Potency is inconclusive [inhibitor, single point].

Question: With `CC(=O)Nc1ccc(C2=NN(c3ccccc3)C(c3cccs3)C2)cc1` (stereo unspecified) as the compound, how does the Potency read?
Answer: Its Potency is “inactive”.

Question: With `CCCC(=O)c1ccc(N2CCN(C(=O)c3ccccc3Br)CC2)c(F)c1` as the compound, how does the Potency read?
Answer: Its Potency is inconclusive [inhibitor, single point].

Question: For `Cc1ccccc1NC(=O)CN(C)S(=O)(=O)c1ccc2c(c1)n(C)c(=O)c(=O)n2C`, which Potency is on record?
Answer: The Potency was “inactive”.

Question: With `Cc1ccccc1-n1nc2c(c1NC(=O)/C=C\c1ccc3c(c1)OCO3)CSC2` as the compound, how does the Potency read?
Answer: Its Potency is inconclusive [inhibitor, partial curve].

Question: Which Potency does the source give for `CCOc1ccc(OCC(=O)Nc2ccc(S(N)(=O)=O)cc2)cc1` here?
Answer: Its Potency is “inactive”.

Question: For `Cn1cccc1C1CCCN1CC(=O)Nc1ccc(F)c(F)c1F` (stereo unspecified), which Potency is on record?
Answer: Its Potency is “inactive”.

Question: For `COCCOc1cc(-n2cccc2)c(Cl)cc1Cl`, which Potency is on record?
Answer: Its Potency is inconclusive [inhibitor, full curve, poor fit].

Question: Which Potency does the source give for `CCN1CCN(c2ccc(S(=O)(=O)N3CCCCC3)cc2NC(=O)/C=C/c2ccc(F)cc2)CC1` here?
Answer: The Potency was inconclusive [inhibitor, single point].

Question: Which Potency does the source give for `Cc1cc(NC(=O)CSCC(=O)N2CCN(c3ccccc3)CC2)no1` here?
Answer: Its Potency is “inactive”.

Question: For `N=c1sccn1CC(=O)Nc1cc(Cl)ccc1Oc1ccccc1`, which Potency is on record?
Answer: Its Potency is inconclusive [inhibitor, partial curve].

Question: With `O=C1N=C(N2CCCC2)S/C1=C\c1cccc(Br)c1` as the compound, how does the Potency read?
Answer: The Potency was inconclusive [inhibitor, single point].

Question: For `Cc1ccc(-n2nc3c(N4CCC(C(=O)NCc5ccccc5C)CC4)nnc(C)c3c2C)cc1`, which Potency is on record?
Answer: The Potency was active: 6.31 µM.

Question: For `Cc1ccc(Cl)cc1N1CCN(C(=O)CCS(=O)(=O)c2ccc3c(c2)NC(=O)CO3)CC1`, which Potency is on record?
Answer: The Potency was active: 11.2 µM.

Question: For `COc1ccc(-c2cn3cc(Cl)ccc3n2)cc1OC`, which Potency is on record?
Answer: Its Potency is inconclusive [inhibitor, partial curve].

Question: For `O=C(OCCN=C1NS(=O)(=O)c2ccccc21)c1cccnc1`, which Potency is on record?
Answer: Its Potency is “inactive”.

Question: Which Potency does the source give for `Cc1nn2c(C)nc3sc4c(c3c2nc1=O)CC(C)(C)OC4` here?
Answer: Its Potency is inconclusive [inhibitor, single point].

Question: With `O=C(Cn1c(=O)[nH]c2ccccc2c1=O)Nc1ccc2c(c1)OCCO2` as the compound, how does the Potency read?
Answer: The Potency was “inactive”.

Question: Which Potency does the source give for `COc1cccc(C2CCCN2Cc2nc(-c3sccc3C)oc2C)c1` (stereo unspecified) here?
Answer: The Potency was “inactive”.

Question: For `Nc1nc2ccc(S(=O)(=O)c3ccc4nc(N)sc4c3)cc2s1`, which Potency is on record?
Answer: Its Potency is “inactive”.

Question: With `CC1(C)CC(NC(=O)c2sc3cc(Cl)ccc3c2Cl)CC(C)(C)N1` as the compound, how does the Potency read?
Answer: The Potency was inconclusive [inhibitor, single point].

Question: For `COc1ccccc1N1CC(C(=O)Nc2ccccc2N2CCCC2)CC1=O` (stereo unspecified), which Potency is on record?
Answer: The Potency was inconclusive [inhibitor, partial curve].

Question: Which Potency does the source give for `COc1ccc(OC)c(Nc2nc(=O)c3cccnc3s2)c1` here?
Answer: Its Potency is “inactive”.

Question: For `CN(c1ccccc1C(=O)Nc1ccc(S(=O)(=O)N2CCOCC2)cc1)S(=O)(=O)c1ccccc1`, which Potency is on record?
Answer: The Potency was inconclusive [inhibitor, single point].

Question: With `Cc1csc2sc(-c3ccnc(SCC(=O)NCc4ccccc4)n3)c(C)c12` as the compound, how does the Potency read?
Answer: The Potency was inconclusive [inhibitor, single point].

Question: With `CC1CCCN(c2nc3nonc3nc2Nc2ccccc2F)C1` (stereo unspecified) as the compound, how does the Potency read?
Answer: Its Potency is inconclusive [inhibitor, partial curve].

Question: Which Potency does the source give for `O=C(Nc1cc(S(=O)(=O)N2CCOCC2)ccc1N1CCCCC1)c1cc(-c2ccccn2)nc2ccccc12` here?
Answer: Its Potency is “inactive”.

Question: With `N#C/C(=C\c1cccn1-c1ccccc1)C(=O)NC1CCCCC1` as the compound, how does the Potency read?
Answer: Its Potency is inconclusive [inhibitor, partial curve].

Question: With `COc1ccc2oc(=O)c(/C(N)=N/NC(=O)c3ccncc3)cc2c1` as the compound, how does the Potency read?
Answer: The Potency was “inactive”.

Question: For `Cc1nc(NC(=O)c2ccncc2)sc1C(=O)N(C)C`, which Potency is on record?
Answer: Its Potency is “inactive”.

Question: For `C=CCc1cccc(CNc2ccc(S(=O)(=O)Nc3nccnc3OC)cc2)c1O`, which Potency is on record?
Answer: The Potency was “inactive”.

Question: With `CCCN(CCC)c1nc(Cl)nc(NCc2ccco2)n1` as the compound, how does the Potency read?
Answer: The Potency was inconclusive [inhibitor, single point].

Question: Which Potency does the source give for `Cc1cc(O)c(CN2CC=C(c3ccccc3)CC2)cc1C(C)C` here?
Answer: Its Potency is “inactive”.

Question: For `CCN(CC)C(=O)C1CCCN(C/C=C/c2ccccc2)C1` (stereo unspecified), which Potency is on record?
Answer: The Potency was “inactive”.

Question: For `O=[N+]([O-])c1ccc(Oc2ccc(F)cc2)c2ccncc12`, which Potency is on record?
Answer: The Potency was inconclusive [inhibitor, single point].

Question: Which Potency does the source give for `CCOC(=O)N1CCN(C(=O)/C(=C/c2ccc(Br)cc2)NC(=O)c2ccc(OC)cc2)CC1` here?
Answer: The Potency was inconclusive [inhibitor, single point].

Question: Which Potency does the source give for `CCOc1cccc(C(=O)Nc2nc(-c3ccc(S(=O)(=O)N4CCOCC4)cc3)cs2)c1` here?
Answer: Its Potency is “inactive”.

Question: Which Potency does the source give for `Cc1ccc(S(=O)(=O)N2CCOCC2)cc1C(=O)c1nccn1C` here?
Answer: The Potency was inconclusive [inhibitor, single point].

Question: For `CCOc1ccc(NC(=S)Nc2ccccc2C2(C)CC2)cc1`, which Potency is on record?
Answer: Its Potency is inconclusive [inhibitor, single point].

Question: Which Potency does the source give for `CC(C)CCOC(=O)C[N+](C)(C)CCOC1CC2CCC1(C)C2(C)C` (stereo unspecified) here?
Answer: The Potency was “inactive”.

Question: Which Potency does the source give for `Clc1ccc2c(c1)C1=C(C(c3ccncc3)O2)C(c2ccc(Br)cc2)n2ncnc2N1` (stereo unspecified) here?
Answer: The Potency was active: 12.6 µM.

Question: Which Potency does the source give for `CC(=O)c1cccc(NC(=S)NC2CC2)c1` here?
Answer: The Potency was “inactive”.

Question: For `CCCC(=O)OCCn1c(Br)nc2c1c(=O)[nH]c(=O)n2C`, which Potency is on record?
Answer: Its Potency is inconclusive [inhibitor, single point].
